The supplement of paper PMC3334620
The full ranking holds about 33,000 sequences; the median of “E-score (-0.5 to 0.5)” is about -0.016, and the highest 2% start at about 0.31. This is one part of the list.

What follows are sequences tested against Cst6 (UniProt P40535) (assay: PBM E-score (8-mer binding enrichment) (E-score (-0.5 to 0.5)); higher = stronger / more preferred TF binding; most listed sequences are background and not binding sites). Conditions: protein concentration: 200 nM; construct: GST-DNA-binding domain.
Procedure: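 Universal 'all 10-mer' protein binding microarrays (Agilent AMADID 015681) probed with GST-tagged S. cerevisiae TFs (full-length or DBD) made by in vitro transcription/translation (PURExpress), about 100-200 nM. Bound TF was detected with fluorescent anti-GST. Each ungapped 8-mer (which stands for itself and its reverse complement) is scored by the PBM enrichment score (E-score), a modified Wilcoxon-Mann-Whitney statistic from -0.5 to +0.5, computed with the Universal PBM Analysis Suite. Scale: above 0.35 generally sequence-specific binding.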

| Sequence | PBM E-score |
| --- | --- |
| CAGGACCC | -0.227 |
| CGCAGTGA | 0.0474 |
| TCAAAGGA | -0.0619 |
| CGCAATGC | 0.132 |
| ACCACAGT | 0.0309 |
| ATGTTATG | 0.295 |
| GAATCTAC | 0.0715 |
| CTTAGTTC | -0.027 |
| ACCGTTCT | -0.214 |
| AAGACGGC | 0.00803 |
| GAGTGCAA | -0.0418 |
| ACATAAGC | -0.0169 |
| GTGCACCA | 0.0104 |
| ATACTCAG | 0.103 |
| CCATGATA | 0.0966 |
| AGAGACCT | -0.0958 |
| GCTAGGAC | -0.113 |
| TCCCTCAA | -0.0304 |
| ACGTGTCG | 0.181 |
| GATTCGGA | 0.169 |
| ATGGTCGC | -0.175 |
| CATTGGCC | -0.223 |
| GGATATAA | 0.236 |
| CCTACCCA | -0.131 |
| CATCTAGA | 0.019 |

| Sequence | PBM E-score |
| --- | --- |
| TGTTAACA | -0.153 |
| ACTTTTAG | 0.019 |
| GGCCGGGA | -0.327 |
| CAGATAGC | -0.274 |
| TACGTCTA | 0.188 |
| AGGTCGTC | -0.042 |
| AATCACAT | 0.125 |
| AAGTACTT | -0.117 |
| GCTGCGAA | 0.0455 |
| CGACACAA | -0.0353 |
| ACACAGCC | 0.141 |
| GGTTCTTA | 0.00132 |
| AGATCACT | 0.181 |
| CAGTTGAG | -0.163 |
| GCCTCGGA | -0.0928 |
| ACACACAT | 0.107 |
| GACTCTCA | -0.147 |
| CCTTAGAA | 0.037 |
| GTTCACAA | 0.13 |
| CTTGATCC | -0.0116 |
| AAATGGTA | 0.0899 |
| AAAATGCC | 0.165 |
| CTAGCATA | -0.177 |
| GATAACTA | 0.0353 |
| AACCCGTA | -0.0464 |

| Sequence | PBM E-score |
| --- | --- |
| CTGAGCGC | -0.173 |
| AAGGAGTC | -0.206 |
| CGGAAGGA | -0.155 |
| ACTGATAC | -0.0371 |
| ATTGACAC | 0.0336 |
| AAATCTGC | -0.0415 |
| GCTCGCCC | -0.255 |
| ATGGTTCA | -0.00342 |
| GCGGTCCA | -0.321 |
| GAGGTCAA | -0.0815 |
| GAAGAGGC | 0.0384 |
| ATCCAACC | -0.113 |
| AGCGTAGG | -0.205 |
| CGTCCGGC | -0.122 |
| AAACCGGT | -0.167 |
| CCGGTTCA | -0.229 |
| GATGCCGA | 0.118 |
| GGCGTGAC | 0.263 |
| GCTGGAGA | -0.254 |
| AACATCCT | -0.0218 |
| AGACGGCT | -0.0242 |
| GCCGGGTA | -0.312 |
| ACACTTGC | -0.0547 |
| GTATAACA | 0.144 |
| GCTGAGAC | -0.181 |

| Sequence | PBM E-score |
| --- | --- |
| CGAGCTAA | -0.128 |
| GCTAATGA | 0.0501 |
| AGGCCTAT | -0.0919 |
| GATGCAAA | -0.00557 |
| AAGCATAG | -0.0988 |
| ACAGTTGG | 0.0396 |
| GATGGAAC | -0.0946 |
| GCCTAGTA | -0.0619 |
| AGAGTTAC | 0.0804 |
| CATTATAA | 0.124 |
| AATGTTTG | 0.0959 |
| AATGCTCT | 0.0147 |
| CCCTCCTA | -0.252 |
| GCAAATAC | 0.111 |
| GACTGAGC | -0.149 |
| CATCATAC | 0.374 |
| ATTATCGA | 0.042 |
| GGGGTCGA | -0.211 |
| ATATCGAG | 0.00721 |
| ACGAAGCA | 0.105 |
| CCGCGGTA | -0.0481 |
| CAACGAGA | 0.136 |
| GCTCTTAC | 0.139 |
| TGCTCAAA | -0.0553 |
| GAGGGTCA | -0.235 |

| Sequence | PBM E-score |
| --- | --- |
| GTACATGA | 0.158 |
| CTGGCATA | -0.0325 |
| TCTAGTCA | -0.0147 |
| CACCACGC | -0.0882 |
| CAACGAGG | 0.00993 |
| CATAAGCC | -0.0207 |
| CGTATGCA | 0.221 |
| CAGCCAGA | -0.32 |
| GAAAGCTC | -0.157 |
| AAAAGAGT | -0.00431 |
| AGAGAGGC | -0.251 |
| CAATATTG | 0.306 |
| AGATTCAA | 0.127 |
| AATTGTCA | 0.269 |
| CGGGGCCC | -0.0951 |
| TAGACAGA | 0.13 |
| ACCGATTG | 0.0893 |
| AACATGCT | 0.0186 |
| GTAACGAA | 0.171 |
| CCCATACG | -0.0945 |
| ACTTCAGC | -0.153 |
| GGATTACC | -0.121 |
| TGTGACAA | 0.117 |
| GATAGGAA | -0.0555 |
| TTCCAGAA | 0.199 |

| Sequence | PBM E-score |
| --- | --- |
| CTTACCCA | -0.0433 |
| CTGCAATA | 0.107 |
| GAGATACA | 0.197 |
| AGGATCAG | -0.266 |
| AGAACGCT | -0.151 |
| CCAATACG | 0.0622 |
| GACACGGA | 0.0706 |
| AAGAAATT | 0.262 |
| GACCTACA | -0.0676 |
| AAGCGTGG | -0.165 |
| CAGCGGGG | -0.0319 |
| GATACAAA | 0.157 |
| AAAGACGT | 0.271 |
| CATGGTAG | -0.0732 |
| AAAACGGA | 0.171 |
| CGTATCAC | 0.142 |
| CATTGTAC | 0.033 |
| ACAGCAAC | 0.0988 |
| GTTTCCTA | 0.201 |
| ATCCTAAG | -0.131 |
| CCGCCAGG | -0.246 |
| CAGTGAGC | -0.00176 |
| TCCTCCCA | -0.249 |
| AGGAAGGG | -0.262 |
| CTCTAGCA | -0.0453 |

| Sequence | PBM E-score |
| --- | --- |
| AATCTTGG | -0.029 |
| CGGCCGTA | 0.175 |
| ACTGTAGC | -0.197 |
| AAAAAAAA | 0.317 |
| AGGTACAC | -0.334 |
| TAGACCCA | 0.0486 |
| CACCCACA | 0.0319 |
| CCACGGGA | -0.195 |
| GATTATCC | -0.0969 |
| ATTAGGGG | -0.244 |
| CGCCCCCA | -0.282 |
| GCTACTAA | 0.0534 |
| ATAGCATA | 0.0409 |
| GGAGCCAA | -0.27 |
| GCCGGGGA | -0.179 |
| AACGCGGA | 0.165 |
| ACCCGAAC | -0.0669 |
| ATGGTACA | -0.0315 |
| AGGGGTTG | -0.151 |
| TGCGACAA | 0.0517 |
| GAAGAAGC | -0.109 |
| AATATCAT | 0.302 |
